From paper PMC11928274 (Cell chemical biology, 2025) come the findings set out here.

The experiment has as its target Hsc70 (HSPA8), biotinylated (human, UniProt P11142, biotin (BirA bulk kit)). Description: flow cytometry on cells. For orientation: Flow cytometry measures light scatter and fluorescence of single cells or particles in a stream.
Sequence of UniProt P11142 (P11142 whole entry): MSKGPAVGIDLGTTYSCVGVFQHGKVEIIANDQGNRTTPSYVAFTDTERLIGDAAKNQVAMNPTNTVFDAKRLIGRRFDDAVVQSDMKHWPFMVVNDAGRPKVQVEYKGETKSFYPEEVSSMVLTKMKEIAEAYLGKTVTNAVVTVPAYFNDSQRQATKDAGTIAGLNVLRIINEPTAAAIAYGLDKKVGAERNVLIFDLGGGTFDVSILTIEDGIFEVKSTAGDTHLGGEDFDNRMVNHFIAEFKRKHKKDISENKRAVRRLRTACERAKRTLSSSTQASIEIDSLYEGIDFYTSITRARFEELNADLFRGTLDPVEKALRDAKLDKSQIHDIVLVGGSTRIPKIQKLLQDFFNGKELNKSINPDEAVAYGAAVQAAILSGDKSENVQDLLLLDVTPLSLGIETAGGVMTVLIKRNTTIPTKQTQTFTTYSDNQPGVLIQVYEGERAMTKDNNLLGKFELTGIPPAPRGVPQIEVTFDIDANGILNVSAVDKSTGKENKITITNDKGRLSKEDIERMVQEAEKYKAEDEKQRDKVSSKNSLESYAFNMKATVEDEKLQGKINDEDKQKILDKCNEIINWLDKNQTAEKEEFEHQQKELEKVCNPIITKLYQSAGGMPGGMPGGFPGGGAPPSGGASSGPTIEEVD

B1: DnaJB1 (human, native J-domain protein) (natural protein)
chain: MGKDYYQTLGLARGASDEEIKRAYRRQALRYHPDKNKEPGAEEKFKEIAEAYDVLSDPRKREIFDRYGEEGLKGSGPSGGSGGGANGTSFSYTFHGDPHAMFAEFFGGRNPFDTFFGQRNGEEGMDIDDPFSGFPMGMGGFTNVNFGRSRSAQEPARKKQ[left out - about 150 residues]PERIPQTSRTVLEQVLPI
Regarding B1, the binding result is “binds”.
